This is one part of the list.

The test relates to T1, C. trachomatis L2/434/Bu expressing GFP (CTL2-GFP).
T1 construct: L2/434/Bu GFP intracellular growth in HeLa cells
The arrangement: species or system HeLa; C. trachomatis total inclusion area by high-content imaging, normalised to DMSO. To be noted: total inclusion area; 28.5 h, 10 µM; inhibitor. In short, it runs like this:
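High-content images of fixed, Hoechst-stained infected cultures supply inclusion area and count (growth) plus nuclei number (viability), complementing bulk GFP/resorufin fluorescence. MIC determination is unchanged from the primary assay.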
As for `C=CCOc1ccc2ccccc2c1CNc1nn[nH]n1` [CBK267619], the “% of control remaining” value is 105.564.

Take `O=C(c1cc(F)cc(F)c1)N1CCC(O)(c2cccnc2F)CC1` [CBK284361]: the “% of control remaining” value amounted to 91.1865.

On to `CC(=O)N1CCC2(C/C=C/C[C@H]3CN(CCO)CC[C@H]3NC(=O)CNC2=O)CC1` [CBK292139], for which the “% of control remaining” value is 117.629.

For `Cc1ccc(Cc2c(C)nc(N3CCN(Cc4ccccc4)CC3)[nH]c2=O)cc1` [CBK270170], the “% of control remaining” value is 100.524.

As to `CC(C)n1c(=O)n(CC(=O)NC2CCCCC2)c2cccnc21` [CBK283696], the “% of control remaining” value came to 86.488.

As to `O=S(=O)(Nc1nnn[nH]1)c1cccc2nonc12` [CBK062380], the “% of control remaining” value is on record as 119.073.

With `CCCn1c(C)cc(-c2csc(NC(=O)CCn3c(-c4cccs4)n[nH]c3=S)n2)c1C` [CBK295326], the “% of control remaining” value was 109.762.

Consider `COc1ccc(C2(NCc3ccc(N4CCCC4=O)cc3)CC2)cc1` [CBK282834], for which the “% of control remaining” value turned out to be 78.5076.

As for `CCOC(=O)N1CCN(Cc2nc3c(c(=O)n(C)c(=O)n3C)n2Cc2ccccc2C)CC1` [CBK269325], the “% of control remaining” value is recorded as 100.282.

As to `COc1ccccc1N(CC(O)CN1CCCC1)S(=O)(=O)c1ccccc1` (stereo not shown) [CBK264829], the “% of control remaining” value amounted to 79.174.

For the compound `O=C(O)Cc1ccc(NC(=O)c2cccc(NC(=O)c3ccco3)c2)cc1` [CBK268606], the “% of control remaining” value is reported as 83.2783.

In the case of `COc1cc(F)cc(OC2CCNCC2)c1NC(=O)C1CCC1` [CBK045912T], the “% of control remaining” value was 88.4118.

As for `Cn1nccc1NC(=O)Nc1ccc(CN2CCOC2=O)cc1` [CBK306279], the “% of control remaining” value was 53.9254.

Regarding `COc1ccc(C2C(C(=O)Nc3ccc(C)cc3)=C(C)Nc3ncnn32)cc1OC` (stereo not shown) [CBK294416], the “% of control remaining” value is listed as 92.2508.

Take `Cc1cc(C)nc(Nc2ccc(C3CCCN(C(=O)C(C)(C)c4cccc(F)c4)C3)nc2)n1` (stereo not shown) [CBK286007]: the “% of control remaining” value was 96.2363.

Regarding `CC(O)c1nc2ccccc2n1C` (stereo not shown) [CBK115560], the “% of control remaining” value turned out to be 110.422.

With `COc1ccccc1C(CNC(=O)Nc1cc(C)on1)N1CCCC1` (stereo not shown) [CBK304586], the “% of control remaining” value came out at 83.933.

Take `CC(C)NC(=O)C1CC2CCC1CC21NC(=O)c2ccccc2O1` (stereo not shown) [CBK284353]: the “% of control remaining” value was found to be 91.504.

For the compound `CCN(CC)C(=O)c1sc2ncccc2c1NS(=O)(=O)c1ccc(C)c([N+](=O)[O-])c1` [CBK050618], the “% of control remaining” value amounted to 102.137.

As to `COc1ccc(NS(=O)(=O)c2ccc(Cl)c(C(=O)Nc3ccccc3C(=O)O)c2)cc1` [CBK263209], the “% of control remaining” value is 19.5847.

For the compound `O=C(NCCCNC1CCc2[nH]c3ccccc3c2C1)c1cccc(Br)c1` (stereo not shown) [CBK107130T], the “% of control remaining” value was 49.1513.

`O=C(O)c1cc(C(=O)O)c(-c2ccccc2)c(C(=O)O)c1` [CBK261101]: the “% of control remaining” value came to 95.0584.

Regarding `Cc1noc(C)c1S(=O)(=O)Nc1c(C(=O)N2CCN(C)CC2)[nH]c2ccccc12` [CBK050057], the “% of control remaining” value came to 97.3621.

As to `COc1ccc(C(=O)CSc2nnc(-c3ccc4c(c3)OCO4)n2-c2ccccc2)cc1` [CBK263592], the “% of control remaining” value is 123.035.

Regarding `NC[C@H]1CC[C@H](C(=O)NCCN2CCc3ccccc32)CC1` [CBK282723], the “% of control remaining” value is 116.717.

With `Cc1sc(-c2ccc(C(F)(F)F)cc2)nc1COc1cncc(N2CCNCC2)n1` [CBK172383G], the “% of control remaining” value was determined as 71.9656.

For the compound `O=[N+]([O-])c1ccccc1/C=C/CN1CCN(CCO)CC1` [CBK261863], the “% of control remaining” value turned out to be 108.455.

For the compound `CC1CCN(c2ccc(S(=O)(=O)Nc3cc(C(=O)O)cc(C(=O)O)c3)cc2[N+](=O)[O-])CC1` [CBK263886], the “% of control remaining” value was found to be 88.9623.

Regarding `O=C(NCN1CCN(c2ccccc2F)CC1)c1cccnc1` [CBK265530], the “% of control remaining” value came to 79.2867.

For `CCc1nc2cc(NC(=O)c3csc(C(C)=O)c3)ccc2n1C` [CBK282522], the “% of control remaining” value was 82.0309.

For `Cc1oc2c(c1C(=O)NCCn1ccnc1C)CCCC2` [CBK281898], the “% of control remaining” value is 80.2873.

`CC(C)S(=O)(=O)N1CCC(C(=O)NC(c2ccccc2)c2ccc3ccccc3n2)CC1` (stereo not shown) [CBK059676]: the “% of control remaining” value was found to be 96.6363.

On to `O=C(O)CCc1ccc(-c2cn3ccnc3c(NCc3ccncc3)n2)cc1` [CBK038022], for which the “% of control remaining” value was 104.149.

With `CN(C)C(=O)c1cccc(-c2cnc(N3CCOCC3)c3nccn23)c1` [CBK091261], the “% of control remaining” value stood at 129.048.

For `Cn1c(=O)c2c(nc(N3CCN(c4cccc(Cl)c4)CC3)n2CC(=O)O)n(C)c1=O` [CBK286803], the “% of control remaining” value is 99.6441.

On to `O=C(O)CCCc1ccc2sc3ccccc3c2c1` [CBK010971], for which the “% of control remaining” value was 94.1548.

As for `N#Cc1c(Nc2cccc(C(F)(F)F)c2)sc(C(=O)c2ccc3c(c2)OCO3)c1N` [CBK074399], the “% of control remaining” value was 1.675.

Regarding `CN1CCN(CCCNC(=O)C2(c3ccccc3)CCCC2)CC1` [CBK149521], the “% of control remaining” value is on record as 109.737.

Regarding `Nc1ncc(-c2ccc(F)c(Cl)c2)nc1NCCCO` [CBK063555], the “% of control remaining” value was 104.735.

As to `Cc1cccc(CN2CCC3(CCc4ccccc4C(=O)N3)C2)n1` (stereo not shown) [CBK284619], the “% of control remaining” value was found to be 93.8141.

Take `Cc1nnc(Sc2ncccc2C(F)(F)F)s1` [CBK115211]: the “% of control remaining” value came to 109.476.

As to `CCCc1cc(C(=O)N2CCCC(COc3cccc(F)c3)C2)[nH]n1` (stereo not shown) [CBK306776], the “% of control remaining” value is on record as 75.5277.

As for `CC(C)[C@H]1NC(=O)[C@@H]2[C@@H](NC(=O)NC3CCCCC3)CCN2C1=O` [CBK289264], the “% of control remaining” value came to 87.5833.

Regarding `CC(NC(=O)N(CCCN)Cc1ccccc1C(F)(F)F)c1ccccc1` (stereo not shown) [CBK034668C], the “% of control remaining” value was 26.5418.

For `COc1cccc(CNc2ccc(S(N)(=O)=O)cc2)c1OCc1ccccc1F` [CBK267906], the “% of control remaining” value was determined as 91.9515.

As to `O=C(c1cc2ncc(CCO)cn2n1)N1CCC(c2ccccc2Cl)C1` (stereo not shown) [CBK307266], the “% of control remaining” value turned out to be 53.417.

Regarding `COc1ncccc1C(NC(=O)C1CCN(C(=O)OCc2ccccc2)CC1)c1ccccc1C` (stereo not shown) [CBK076802], the “% of control remaining” value is recorded as 110.818.

Consider `Cc1cc(C(F)(F)F)n2nc(C3CCCN3C(=O)C(C)C)cc2n1` (stereo not shown) [CBK284685], for which the “% of control remaining” value amounted to 94.3014.

Consider `COc1ccnc(N2CCCN(CCCC#N)CC2)n1` [CBK084124], for which the “% of control remaining” value came out at 45.1484.

On to `OCc1ccc(-c2nccnc2N2CCCC2CO)cc1` (stereo not shown) [CBK089053], for which the “% of control remaining” value amounted to 75.6732.

As to `Cc1ccc2ccc(S(=O)(=O)NCc3cccnc3)cc2c1` [CBK262072], the “% of control remaining” value came to 89.5065.

`c1csc(-c2nccnc2NCCc2ccncc2)c1` [CBK036764]: the “% of control remaining” value stood at 100.493.

Consider `c1ccc(CCN2CCC(Oc3cncc(OCC4COc5ccccc5O4)n3)C2)cc1` (stereo not shown) [CBK084382], for which the “% of control remaining” value was determined as 80.9309.

For the compound `CSc1ccc(CN(C)CCN(C)C)cc1` [CBK019349], the “% of control remaining” value is 71.0995.

On to `O=C(O)CCNC(=O)c1ccc(C#CC2(O)CCCCC2)cc1` [CBK286554], for which the “% of control remaining” value was found to be 73.2951.

For `Cc1ccc(CNC(=O)C2CC(=O)N(c3cccc(C)c3C)C2)cc1` (stereo not shown) [CBK295183], the “% of control remaining” value was determined as 63.2825.

Regarding `O=C(O)c1ccc(Cl)c2c1C1C=CCC1C(c1ccc(S(=O)(=O)N3CCOCC3)cc1)N2` (stereo not shown) [CBK268401], the “% of control remaining” value is 108.947.

`NC(=O)c1ccccc1OCCO` [CBK000640]: the “% of control remaining” value was 98.1664.

As to `CCOC(=O)c1c(-c2ccc(OC)cc2)noc1C(O)c1ccccc1` (stereo not shown) [CBK002296], the “% of control remaining” value came to 132.915.

As for `CC(C)c1ccccc1NC(=O)NCCc1cccs1` [CBK043938], the “% of control remaining” value is recorded as 99.4337.

Turning to `C[C@H]1CN2C[C@H](O)CC2CN1Cc1cccc2ccccc12` (stereo partly shown) [CBK284717], the “% of control remaining” value was 101.851.

In the case of `COc1cc(NC(=O)CC2NC3CCCCC3NC2=O)cc(OC)c1` (stereo not shown) [CBK266597], the “% of control remaining” value came out at 96.6456.

As for `O=C(NCCCn1ccnc1)c1cccc(S(=O)(=O)N2CCCCC2)c1` [CBK304687], the “% of control remaining” value stood at 79.9921.

Take `COc1cccc2cc(C(=O)NC3CC3)oc12` [CBK149813]: the “% of control remaining” value was 104.217.

Take `CC1(C)CN=C(N2CCN(C3=NCC(C)(C)S3)CC2)S1` [CBK020461]: the “% of control remaining” value stood at 83.5661.

Turning to `O=C(O)CCCC(=O)Nc1ccc(O)cc1` [CBK263567], the “% of control remaining” value turned out to be 119.409.

As for `CS(=O)(=O)NC1c2cccc3cccc(c23)C1N1CCOCC1` (stereo not shown) [CBK265845], the “% of control remaining” value amounted to 130.731.

For `O=C(O)c1cc(C(=O)O)cc(N2C(=O)c3ccc(S(=O)(=O)c4ccc5c(c4)C(=O)N(c4cc(C(=O)O)cc(C(=O)O)c4)C5=O)cc3C2=O)c1` [CBK261336], the “% of control remaining” value stood at 108.188.

Consider `O=S(=O)(Nc1ccc2c(ccn2Cc2ccccc2)c1)c1ccc(S(=O)(=O)c2ccccc2)s1` [CBK159533], for which the “% of control remaining” value is 83.6314.

With `Cc1cc(NC(=O)c2cc([N+](=O)[O-])ccc2Cl)nc2c1c(=O)oc1ccccc12` [CBK291258], the “% of control remaining” value worked out at 84.3713.

In the case of `Cc1csc2c(C3CCCN(C(=O)c4ccncc4)C3)nc(C)n12` (stereo not shown) [CBK285213], the “% of control remaining” value is recorded as 84.5058.

Regarding `c1ccc(Oc2ccccc2-c2cc(N3CCC(N4CCCCC4)CC3)ncn2)cc1` [CBK037728], the “% of control remaining” value is listed as 108.603.

Turning to `Cc1cc(-c2ccccc2)sc1C(=O)/C=C(\O)C(=O)O` [CBK263198], the “% of control remaining” value is given as 108.266.

For the compound `O=[N+]([O-])c1ccccc1S(=O)(=O)N1CCN(Cc2cccc(Oc3ccccc3)c2)CC1` [CBK264283], the “% of control remaining” value turned out to be 109.516.

Take `O=S(=O)(Nc1ccccn1)N1CCCCC1` [CBK269490]: the “% of control remaining” value was found to be 115.518.

On to `CSc1ccc(CN(C)c2cncc(-n3cccn3)n2)cc1` [CBK298326], for which the “% of control remaining” value is on record as 89.3134.

Turning to `CSCCN1CCCN(c2nccc(OCC3COc4ccccc4O3)n2)CC1` (stereo not shown) [CBK083978], the “% of control remaining” value worked out at 70.6682.

`COc1ccc(OCC(=O)Nc2ccccc2N2CCN(S(C)(=O)=O)CC2)cc1` [CBK269177]: the “% of control remaining” value worked out at 116.525.

Regarding `O=C1c2ccccc2C(=O)N1CCc1nc2ccccc2c(=O)n1-c1nc2ccccc2s1` [CBK266358], the “% of control remaining” value is recorded as 130.457.

The values above are taken from article PMC12040169 (PLOS Biology, 2025).
